# Where “and” joins values, the source holds several entries; their conditions need not be identical. Identical values can stand only once. The shares of active, inactive and inconclusive entries below differ from those in the screen. Potencies of inconclusive entries are doubtful fits and often do not repeat. Calls of active or inactive are those of the source. Unless noted, the call rests on the fitted dose curve; in most records, active means well fitted curve in the direction sought with a large enough effect in the repeat runs; inconclusive means weak or mixed curves; inactive means no such curve, though single readings can be large; an effect the other way counts as inactive or inconclusive.
# Key:
# [1] = qHTS assay for small molecule activators of the heat shock response signaling pathway (AID 743210; active means well fitted activation curve with a large enough effect in the signal ratio in the repeat runs, with a control signal flat, not every such curve was filed as active; inconclusive means weak or mixed curves; the % refers to the signal ratio); details: HeLa HSE-bla reporter, beta-lactamase ratio, 5 h; activation: at 62.6 µM (top of the series)
# Outline: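 Heat shock element–beta-lactamase HeLa reporter cells; qHTS with compounds for 5 h at 37 C; detection by FRET substrate fluorescence after 2.5 h at RT.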
# [2] = molecular target: Peroxisome proliferator-activated receptor delta (Homo sapiens) (UniProt Q03181); experiment: qHTS assay to identify small molecule antagonists of the peroxisome proliferator-activated receptor delta (PPARd) signaling pathway (AID 743215; active means well fitted inhibition curve with a large enough effect in the signal ratio in the repeat runs, not every such curve was filed as active; inconclusive means weak or mixed curves, or effect the other way; inactive means no such curve, though single readings can be large or run the other way; the % refers to the signal ratio;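 further: cells stimulated with agonist L165041 at 300 nM final during compound exposure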); details: HEK293H PPARd-UAS-bla, beta-lactamase FRET ratio, antagonist, 17 h; ratio activity, negative = inhibition: at 62 µM (top of the series) unless noted
# Outline: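 Cells: HEK293H with a UAS-driven beta-lactamase reporter responsive to PPARd. Compounds were co-added with L165041 (300 nM, final) and incubated 17 h at 37 C before a 2 h room-temperature FRET substrate step and fluorescence reading.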
# [3] = molecular target: Bile acid receptor (Homo sapiens) (UniProt Q96RI1); experiment: qHTS assay to identify small molecule agonists of the farnesoid-X-receptor (FXR) signaling pathway (AID 743220; active means well fitted activation curve with a large enough effect in the signal ratio in the repeat runs, not every such curve was filed as active; inconclusive means weak or mixed curves, or effect the other way; the % refers to the signal ratio; on activation: on the % scale 0 is the no-effect control and ±100 the full control effect); details: HEK293T FXR-UAS-bla, beta-lactamase FRET ratio, 16 h; activation: at 62.6 µM (top of the series) unless noted
# Outline: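 FXR-UAS-bla HEK 293T cells carrying a UAS-driven beta-lactamase reporter were plated for 5 h at 37C/5% CO2, then exposed to DMSO-dissolved Tox21 10K compounds for 16 h at 37C. A LiveBLAzer B/G FRET substrate was loaded for 2 h at room temperature before fluorescence reading.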
# [4] = molecular target: Vitamin D3 receptor (Homo sapiens) (UniProt P11473); experiment: qHTS assay to identify small molecule agonists of the vitamin D receptor (VDR) signaling pathway (AID 743222; calls by dose curve; on activation: on the % scale 0 is the no-effect control and ±100 the full control effect); details: HEK293T VDR-UAS-bla, beta-lactamase FRET ratio, 16 h; activation: at 63.5 µM (top of the series) unless noted
# Outline: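 Cells carrying a VDR-driven beta-lactamase reporter are seeded at 2,000 per well and rested 4 h. Compounds in DMSO are added for 16 h at 37C, and FRET substrate fluorescence is measured after 2 h at room temperature.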
# [5] = molecular target: Vitamin D3 receptor (Homo sapiens) (UniProt P11473); experiment: qHTS assay to identify small molecule antagonists of the vitamin D receptor (VDR) signaling pathway (AID 743223; active means well fitted inhibition curve with a large enough effect in the signal ratio in the repeat runs, not every such curve was filed as active; inconclusive means weak or mixed curves, or effect the other way; inactive means no such curve, though single readings can be large or run the other way; the % refers to the signal ratio; on activity change, negative = inhibition: on the % scale 0 is the no-effect control and ±100 the full control effect); details: VDR-UAS-bla HEK293T, beta-lactamase FRET ratio, 16 h; activity change, negative = inhibition: at 61 µM (top of the series) unless noted
# Outline: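 Antagonist mode uses 1alpha,25-dihydroxyvitamin D3 at 3 nM final as stimulus. VDR-bla cells receive compounds in DMSO, incubate 16 h at 37C, then a beta-lactamase FRET substrate for 2 h at room temperature before fluorescence measurement.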
# [6] = qHTS assay for small molecule activators of the heat shock response signaling pathway - cell viability counter screen (AID 743209); details: HSE-bla HeLa viability, CellTiter-Glo luminescence, 5 h; activity change, negative = cytotoxicity: at 62.6 µM (top of the series); further: nearly all actives have a fitted effect of over 50% in size
# Outline: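 Cytotoxicity counter screen run in parallel with the HSE beta-lactamase reporter, using the same wells. HeLa HSE-bla cells received compound for 5 h at 37 C; ATP-based CellTiter-Glo luminescence was measured after 30 min at room temperature.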
# [7] = qHTS assay to identify small molecule antagonists of the peroxisome proliferator-activated receptor delta (PPARd) signaling pathway - cell viability counter screen (AID 743213); details: PPARd-bla HEK293H viability, CellTiter-Glo luminescence, 17 h; viability change, negative = cytotoxic: at 62 µM (top of the series) unless noted; further: nearly all actives have a fitted effect of over 50% in size; on viability change, negative = cytotoxic: on the % scale 0 is the no-effect control and ±100 the full control effect
# Outline: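 HEK293H PPARd UAS-bla cells, 5 h pre-incubation, compound + L165041 300 nM final, 17 h 37 C; B/G FRET substrate 2 h RT; then CellTiter-Glo 30 min RT, luminescence.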
# [8] = qHTS assay for small molecule agonists of the antioxidant response element (ARE) signaling pathway (AID 743202; active means well fitted activation curve with a large enough effect in the signal ratio in the repeat runs, not every such curve was filed as active; inconclusive means weak or mixed curves, or effect the other way; inactive means no such curve, though single readings can be large or run the other way; the % refers to the signal ratio); details: HepG2 ARE-bla reporter, beta-lactamase FRET, 16 h; activation: at 73.3 µM (top of the series) unless noted
# Outline: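 Following a 16 h, 37 C exposure of reporter HepG2 cells (ARE-driven beta-lactamase, 2,000 cells/well) to compounds, FRET substrate was applied for 2 h at room temperature and fluorescence intensity recorded.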
# [9] = qHTS assay for small molecule agonists of the antioxidant response element (ARE) signaling pathway - cell viability counter screen (AID 743203; calls by dose curve; further: nearly all actives have a fitted effect of over 55% in size); details: ARE-bla HepG2 viability, CellTiter-Glo luminescence, 16 h; viability change, negative = cytotoxic: at 73.3 µM (top of the series)
# Outline: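 Cytotoxicity was tested in parallel with the ARE reporter screen. ARE-bla HepG2 cells were exposed to compounds for 16 hrs, and viability was taken from CellTiter-Glo luminescence.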
# [10] = molecular target: Bile acid receptor (Homo sapiens) (UniProt Q96RI1); experiment: qHTS assay to identify small molecule antagonists of the farnesoid-X-receptor (FXR) signaling pathway (AID 743217; active means well fitted inhibition curve with a large enough effect in the signal ratio in the repeat runs, not every such curve was filed as active; inconclusive means weak or mixed curves, or effect the other way; inactive means no such curve, though single readings can be large or run the other way; the % refers to the signal ratio); details: HEK293T FXR-UAS-bla, beta-lactamase ratio, CDCA-stimulated, 16 h; activity change, negative = inhibition: at 62.6 µM (top of the series) unless noted
# Outline: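 Cells carrying a UAS-driven beta-lactamase reporter (GeneBLAzer FXR-UAS-bla HEK 293T) were plated and rested 5 h at 37 °C. Compounds in DMSO were added alongside chenodeoxycholic acid agonist at 50 uM final and left 16 h at 37 °C before FRET substrate readout.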
# [11] = qHTS assay to identify small molecule agonists of the farnesoid-X-receptor (FXR) signaling pathway - cell viability counter screen (AID 743218); details: FXR-bla HEK293T viability, CellTiter-Glo luminescence, 16 h; viability change, negative = cytotoxic: at 62.6 µM (top of the series) unless noted; further: nearly all actives have a fitted effect of over 45% in size
# Outline: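 Cells were seeded, left 5 h at 37 C and 5% CO2, then dosed with compound in DMSO for 16 h. After the beta-lactamase FRET read, CellTiter-Glo was added and luminescence measured 30 min later.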
# [12] = molecular target: Peroxisome proliferator-activated receptor delta (Homo sapiens) (UniProt Q03181); experiment: qHTS assay to identify small molecule agonists of the peroxisome proliferator-activated receptor delta (PPARd) signaling pathway (AID 743212; calls by dose curve); details: HEK293H PPARd-UAS-bla, beta-lactamase FRET ratio, 17 h; activation: at 62.6 µM (top of the series) unless noted
# Outline: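 Beta-lactamase reporter read by fluorescence (LiveBLAzer B/G FRET, 2 h, room temperature). Test agents, in DMSO, incubated at 37 C with PPARd-bla HEK293H cells.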
# [13] = qHTS assay to identify small molecule antagonists of the farnesoid-X-receptor (FXR) signaling pathway - cell viability counter screen (AID 743221; active means well fitted cell-killing curve with a large enough effect in the repeat runs, not every such curve was filed as active; inconclusive means weak or mixed curves, or effect the other way; inactive means no such curve, though single readings can be large or run the other way; further: nearly all actives have a fitted effect of over 50% in size); details: FXR-bla HEK293T viability, CellTiter-Glo luminescence, 16 h; activity change, negative = cytotoxicity: at 62.6 µM (top of the series)
# Outline: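 Luminescence from CellTiter-Glo measures cytotoxicity in GeneBLAzer FXR-UAS-bla HEK 293T cells. Cells were exposed to compounds with 50 uM chenodeoxycholic acid (final) for 16 h at 37 C, in wells also used for the reporter readout.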
# [14] = qHTS assay to identify small molecule agonists of the peroxisome proliferator-activated receptor delta (PPARd) signaling pathway - cell viability counter screen (AID 743211); details: PPARd-bla HEK293H viability, CellTiter-Glo luminescence, 17 h; activity change, negative = cytotoxicity: at 62.6 µM (top of the series); further: nearly all actives have a fitted effect of over 55% in size
# Outline: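 HEK293H PPARd-bla, 3000 cells/well; 5 h preincubation 37C/5% CO2; cpd in DMSO, 17 h 37C; B/G FRET substrate 2 h RT; CellTiter-Glo 30 min RT, luminescence.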
# Potency means the concentration at half of the fitted maximal effect; tags describe the fitted curve by direction and shape or compound fluorescence and quenching.
# Sequence of UniProt Q03181 (Q03181 whole entry, looked up): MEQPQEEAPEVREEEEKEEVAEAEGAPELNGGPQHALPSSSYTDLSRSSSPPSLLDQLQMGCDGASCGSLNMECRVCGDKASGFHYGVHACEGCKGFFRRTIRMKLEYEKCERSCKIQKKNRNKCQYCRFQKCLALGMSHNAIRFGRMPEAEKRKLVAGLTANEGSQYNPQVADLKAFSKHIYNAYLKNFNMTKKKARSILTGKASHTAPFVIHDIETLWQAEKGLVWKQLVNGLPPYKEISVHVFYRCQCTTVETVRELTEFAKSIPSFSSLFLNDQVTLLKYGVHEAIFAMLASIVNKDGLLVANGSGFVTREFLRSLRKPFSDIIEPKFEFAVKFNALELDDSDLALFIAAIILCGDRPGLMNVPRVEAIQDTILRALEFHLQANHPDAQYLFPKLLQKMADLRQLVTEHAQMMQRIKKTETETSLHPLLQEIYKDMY
# Sequence of UniProt P11473 (P11473 whole entry, looked up): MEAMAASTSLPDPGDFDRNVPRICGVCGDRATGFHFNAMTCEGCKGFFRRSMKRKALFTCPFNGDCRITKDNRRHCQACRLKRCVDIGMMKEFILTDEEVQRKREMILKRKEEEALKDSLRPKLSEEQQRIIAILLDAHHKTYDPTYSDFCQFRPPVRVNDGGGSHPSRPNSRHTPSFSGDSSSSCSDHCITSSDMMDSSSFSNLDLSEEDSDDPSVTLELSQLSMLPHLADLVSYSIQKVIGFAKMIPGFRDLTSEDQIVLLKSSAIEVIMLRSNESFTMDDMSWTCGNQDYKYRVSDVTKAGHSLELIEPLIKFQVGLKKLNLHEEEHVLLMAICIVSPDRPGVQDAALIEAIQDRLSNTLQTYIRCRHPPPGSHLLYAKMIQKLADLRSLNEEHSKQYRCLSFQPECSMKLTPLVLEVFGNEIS
# Sequence of UniProt Q96RI1 (Q96RI1 whole entry, looked up): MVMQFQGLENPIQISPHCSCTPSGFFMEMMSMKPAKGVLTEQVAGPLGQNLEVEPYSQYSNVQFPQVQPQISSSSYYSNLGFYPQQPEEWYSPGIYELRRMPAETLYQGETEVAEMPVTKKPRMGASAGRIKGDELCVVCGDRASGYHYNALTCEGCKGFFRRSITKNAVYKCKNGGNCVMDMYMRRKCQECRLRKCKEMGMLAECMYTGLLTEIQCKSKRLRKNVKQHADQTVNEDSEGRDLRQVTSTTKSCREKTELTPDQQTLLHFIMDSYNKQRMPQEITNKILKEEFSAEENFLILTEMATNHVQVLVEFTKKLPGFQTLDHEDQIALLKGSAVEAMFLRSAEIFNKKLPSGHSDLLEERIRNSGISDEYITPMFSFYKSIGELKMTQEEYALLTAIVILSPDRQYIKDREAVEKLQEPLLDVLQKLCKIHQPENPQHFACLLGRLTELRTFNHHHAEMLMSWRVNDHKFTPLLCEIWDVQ
smiles,measurement,setting,value
CC(C)CCCC(C)CCO (centres undefined),Potency,[1],inconclusive: 61.6 µM
same,Potency,[2],"inconclusive: 49 µM [rising, partial curve, poor fit]"
same,Potency,[3],inactive
same,activation,[4],inconclusive: -20.9%
same,Potency,[5],inactive
CCCCCCCC#N,Potency,[6],"inconclusive: 54.9 µM [cytotoxic, single point]"
same,Potency,[1],"inconclusive: 61.7 µM [falling, single point]"
same,"viability change, negative = cytotoxic",[7],inconclusive: -41.8% [cytotoxic]
same,Potency,[4],inconclusive: 54.9 µM
Cc1cc(S(=O)(=O)O)c(N)cc1Cl,activation,[8],inconclusive: -0.268% [at 94.8 µM]
same,"activity change, negative = inhibition",[5],inconclusive: 15.2% [at 78.8 µM]
CC(N)CCCC(C)(C)O (centres undefined),Potency,[9],"inconclusive: 3.76 µM [cytotoxic, partial curve, poor fit]"
CC(C)OB(OC(C)C)OC(C)C,Potency,[6],"inconclusive: 61.9 µM [cytotoxic, single point]"
same,Potency,[1],inactive
same,Potency,[10],inconclusive: 21.9 µM [activator]
same,Potency,[5],"inconclusive: 0.0031 µM [falling, full curve]"
CCC(=O)OCc1ccc(OC)cc1,Potency,[8],"inconclusive: 70.4 µM [rising, partial curve, poor fit]"
same,Potency,[5],inactive
C1CCOC1,Potency,[9],inactive
same,Potency,[11],inactive
NC=O,Potency,[1],inactive
same,Potency,[12],inactive
same,Potency,[7],"inconclusive: 1.55 µM [cytotoxic, full curve, poor fit]"
same,"ratio activity, negative = inhibition",[2],inconclusive: 3.48%
same,Potency,[10],inactive
same,Potency,[3],inactive
CC(C)NCC(O)c1ccc(NS(C)(=O)=O)cc1 (centres undefined),Potency,[8],inactive
same,Potency,[5],inactive
CCCCC(CC)COCC1CO1 (centres undefined),activation,[8],inconclusive: -18.5%
same,Potency,[13],inactive
CO[C@@H]1COCC[C@@H]1N[C@@H]1CC[C@@](C(=O)N2CCc3ncc(C(F)(F)F)cc3C2)(C(C)C)C1,Potency,[9],inactive
C1CCC(SSC2CCCCC2)CC1,activation,[8],inconclusive: -20.4%
same,Potency,[11],"inconclusive: 3.47 µM [rising, full curve, poor fit]"
same,Potency,[5],"inconclusive: 61.6 µM [activator, single point]"
O=C(OCCCCCCOC(=O)c1ccccc1)c1ccccc1,Potency,[6],"inconclusive: 61.6 µM [cytotoxic, single point]"
same,Potency,[1],active: 57.1 µM
same,Potency,[14],"inconclusive: 61.6 µM [cytotoxic, single point]"
same,Potency,[7],"inconclusive: 61.6 µM [cytotoxic, single point]"
same,Potency,[2],"inconclusive: 54.9 µM [inhibitor, single point]"
same,activation,[4],inconclusive: -21.8%
O=Cc1ccc(F)c(Br)c1,Potency,[8],inactive
same,Potency,[5],inactive
C=CC(C)(CCC=C(C)C)OC(=O)c1ccccc1 (centres undefined),Potency,[6],"inconclusive: 54.9 µM [cytotoxic, partial curve, poor fit]"
same,activation,[1],inconclusive: 9.91%
C[Si](Cl)(c1ccccc1)c1ccccc1,activation,[8],inconclusive: 32.2%
same,Potency,[11],inactive
same,Potency,[3],inactive
Cc1c(C(=O)O)cccc1[N+](=O)[O-],Potency,[1],inconclusive: 62.7 µM [activator]
same,Potency,[7],"inconclusive: 6.27 µM [cytotoxic, full curve, poor fit]"
same,Potency,[10],inactive
same,Potency,[3],inactive
same,activation,[4],inconclusive: -26.1% [at 81.1 µM]
CCC(C)CCCC(C)(C)O (centres undefined),Potency,[8],inactive
same,Potency,[5],"inconclusive: 2.19 µM [inhibitor, single point]"
CCCC(=O)OC(C)(C)Cc1ccccc1,Potency,[8],inactive
same,Potency,[11],"inconclusive: 61.6 µM [rising, single point]"
same,Potency,[13],"inconclusive: 19.5 nM [falling, full curve, poor fit]"
same,Potency,[5],"inconclusive: 77.6 µM [activator, single point]"
O=C1c2ccccc2C(=O)c2cc(S(=O)(=O)O)ccc21,Potency,[8],inactive
same,Potency,[4],inactive
same,Potency,[5],inactive
CCOC(=O)COc1ccc2c(C)c(CCN(CC)CC)c(=O)oc2c1Cl,Potency,[6],"inconclusive: 4.22 µM [cytotoxic, full curve, poor fit]"
same,"activity change, negative = inhibition",[5],inconclusive: 11.7%
O=C(c1ccccc1)c1cc(Cl)ccc1O,activation,[8],inconclusive: 18.5%
same,Potency,[5],inconclusive: 58.5 µM
c1ccc2c(c1)ccc1cc3c(ccc4ccccc43)cc12,Potency,[1],inconclusive: 16.2 µM [activator]
same,Potency,[12],"inconclusive: 7.67 µM [rising, partial curve]"
same,Potency,[7],"inconclusive: 0.0172 µM [cytotoxic, full curve, poor fit]"
same,Potency,[11],inactive
same,Potency,[3],inconclusive: 9.66 µM [activator]
O=S(=O)(O)c1ccc2nc(-c3ccccc3)[nH]c2c1,Potency,[6],"inconclusive: 18.6 µM [cytotoxic, partial curve] and inconclusive: 4.22 µM [cytotoxic, partial curve, poor fit]"
same,Potency,[14],"active: 8.29 µM and inconclusive: 13.3 µM [cytotoxic, partial curve]"
same,Potency,[11],"inconclusive: 5.87 µM [cytotoxic, partial curve, poor fit]"
same,Potency,[13],active: 7.39 µM and inconclusive: 16.8 µM
